Measured values reported in PubChem BioAssay AID1458 (National Center for Advancing Translational Sciences (NCATS), 2008).
Hit rate of the full screen: of about 210,000 compounds, about 5,900 (2.8%) were called active. The inconclusive results got no clear call from the source; some entries with a clear call stand among them for comparison. The call rests on the fitted dose curve; in most records, active means well fitted activation curve with a large enough effect; inconclusive means small, poorly fitted or top-dose-only effect; inactive means no such curve, though single readings can be large or run the other way. Potencies beside an inconclusive call are fits to weak or partial responses and may not hold up.

Experiment: qHTS Assay for Enhancers of SMN2 Splice Variant Expression; further: nearly all actives have a fitted effect of over 55% in size; on activity change, positive = activation: % of control where 0% means no effect
Settings: HEK293 SMN2-luciferase splicing reporter, luminescence, 30-36 h; activity change, positive = activation: at 46.1 µM (top of the series)
Procedure, shortened: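 HEK293 cells carry an SMN2 […]–luciferase reporter in which exon 7 inclusion puts luciferase in frame. Cells were plated 10-12 h before compound addition, then incubated 30-36 h at 37C. ONE-Glo luminescence was read; sodium butyrate at 4.5 mM final served as control.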
Potency means the concentration at half of the fitted maximal effect; tags describe the fitted curve by direction and shape.

SMILES	activity change, positive = activation	Potency
Sc1ccc2ccccc2c1CNCc1ccccc1	inactive: -4.04% [at 9.22 µM]	–
COc1ccccc1NC(=O)c1oc2ccc(C)cc2c1C	–	inconclusive: 22.4 µM [activator, single point]
COc1ccc(-c2nc3nc(C)cc(C)n3n2)cc1	–	active: 12.6 µM
O=c1c2ccccc2nnn1CSc1nnc2ccccn12	–	active: 12.6 µM
O=C(Nc1ccccc1)N1CCc2ccccc2C1	–	active: 14.1 µM
COC(=O)c1ccc(NC(=O)COc2ccc(S(=O)(=O)NC(C)C)cc2)cc1	–	inconclusive: 4.47 µM [activator, full curve]
CCc1cccc(C)c1NC(=S)NCc1ccccc1	–	inconclusive: 5.62 µM [activator, single point]
O=c1c2ccccc2c2c(O)nc(-c3ccccc3)n2n1Cc1ccccc1	inactive: 24.1%	–
Cc1ccc(-c2n[nH]c(=S)n2/N=C/c2ccc(C)o2)cc1	–	inconclusive: 15.8 µM [activator, single point]
Cc1ccc(NC(=O)c2oc3ccccc3c2NC(=O)Cc2cccs2)cc1	–	inconclusive: 5.62 µM [activator, single point]
COc1cc(NC(c2ccccc2)c2ccccc2)cc(OC)c1OC	–	inconclusive: 31.6 µM [activator, single point]
COc1ccc(/C=N/Nc2nc(NCc3ccco3)nc(Nc3ccc(OC)cc3)n2)cc1	inactive: -10.6%	–
O=C1C2C3c4ccccc4C(c4ccccc43)C2C(=O)N1Cc1ccccn1 (stereo unspecified)	inactive: -15.2%	–
CSc1nc2nc(-c3ccccc3)cc(=O)n2[nH]1	–	inconclusive: 35.5 µM [activator, single point]
CCOc1cc(C(=O)Nc2ccc3oc(-c4ccc(F)cc4Cl)nc3c2)cc(OCC)c1OCC	inactive: 11.7%	–
Cc1cccc(NC(=O)c2ccc(C(=O)Nc3cccc(C)c3C)cc2)c1C	inactive: 16.8%	–
Cc1ccc(Nc2nnc(SCC(=O)NCCN3C(=O)CSC3=O)s2)cc1	–	inconclusive: 12.6 µM [activator, partial curve, poor fit]
O=C1C2CCCN2C(c2ccccc2F)N1c1ccc(Cl)cc1 (stereo unspecified)	inconclusive: 224% [activator]	–
Cc1ccc2ncc(C(=O)NCc3ccccc3Cl)c(=O)n2c1	inactive: 0.237%	–
COC(=O)C1(C)NC(c2ccco2)C2C(=O)N(c3ccc(C)cc3)C(=O)C21 (stereo unspecified)	–	inconclusive: 3.55 µM [activator, full curve, poor fit]
O=[N+]([O-])c1cccc(NC(=S)N2CCc3ccccc3C2)c1	–	inconclusive: 3.16 µM [activator, partial curve, poor fit]
COc1cc2c(=O)n(-c3ccc(C)cc3)c(=O)n(CC(=O)c3ccc4c(c3)OCO4)c2cc1OC	–	inconclusive: 0.0316 µM [activator, full curve, poor fit]
Cc1cccc(Nc2nc(N)nc(CSc3nccn3C)n2)c1	–	inconclusive: 11.2 µM [activator, partial curve, poor fit]
COc1ccc(-n2c(=O)/c(=C\c3cccs3)s/c2=C(/C#N)C(=O)N2CCN(C)CC2)cc1	inconclusive: 53.3% [activator]	–
Cc1ccc(Nc2nnc(SCC(=O)NCc3ccco3)s2)cc1	inactive: 8.17%	–
CCOC(=O)N1CCC(NC(=O)c2ccc3c(c2)N(Cc2cccc(C)c2)C(=O)c2ccccc2S3(=O)=O)CC1	inactive: -25.3%	–

SMILES	activity change, positive = activation	Potency
Cc1ccc(OCC(=O)N/N=C\c2ccc(C)o2)c(C)c1	inactive: -1.59%	–
O=C(Nc1ccccc1)Nc1ccc2ocnc2c1	–	inconclusive: 20 µM [activator, single point]
COc1ccc([C@H]2[C@H](C(=O)C(C)(C)C)N3N=Cc4ccccc4C3C23C(=O)OC(C)(C)OC3=O)cc1 (stereo partly specified)	–	active: 14.1 µM
COc1cc(C2NC(=O)NC(c3ccccc3)=C2C(C)=O)ccc1OCC(=O)O (stereo unspecified)	–	inconclusive: 14.1 µM [activator, single point]
O=c1c2ccccc2nc(-c2ccccc2)n1CCN1CCOCC1	–	inconclusive: 0.02 µM [activator, full curve]
COc1ccc(/C=C/c2nc3ccccc3n2C)cc1	–	active: 0.316 µM
O=C(Cc1csc2ccccc12)NCc1cccc(Br)c1	inactive: 18.2%	–
O=C(Cc1ccc(Cl)cc1)Nc1ccc(N2CCN(C(=O)c3ccco3)CC2)c(Cl)c1	inactive: -50.1%	–
Cc1ccc(CN2CCSc3ccc(C(=O)Nc4ccc(Cl)cc4)cc32)cc1	–	active: 11.2 µM
Oc1ccc(-c2csc(-c3cccnc3)n2)c(O)c1	inconclusive: 146% [activator]	–
COc1ccc(OC)c(S(=O)(=O)n2ccnc2C)c1	–	inconclusive: 0.0316 µM [activator, full curve, poor fit]
COC(=O)c1ccc(N=NN2CCCCC2)cc1	–	active: 14.1 µM
COc1cc(OC)nc(NC2OC(=O)c3ccccc32)n1 (stereo unspecified)	inactive: -3.2%	–
CCOc1cc(CNc2ccc(CNc3ncn[nH]3)cc2)ccc1OCc1ccccc1	–	inconclusive: 0.158 µM [activator, single point]
NCCNc1cccc2ccccc12	inactive: -11.4%	–
COc1cccc(NC(=O)c2ccn(C)n2)c1	–	active: 14.1 µM
O=C(Nc1ccc(CN2CCOCC2)cc1)c1cc2ccccn2n1	–	inconclusive: 3.16 µM [activator, partial curve, poor fit]
O=C(CCCc1nc2ccccc2s1)NCc1ccc(F)cc1	inactive: -6.85%	–
COC(=O)c1ccc(/C=N/N2C(C)CCCC2C)cc1 (stereo unspecified)	–	inconclusive: 35.5 µM [activator, single point]
CC(C)(C)OC(=O)N/N=C\c1ccc(OC(=O)c2ccco2)cc1	–	inconclusive: 35.5 µM [activator, partial curve, poor fit]
O=C(Nc1ccc2c(c1)OCCO2)c1oc2ccccc2c1NC(=O)C1CC1	–	inconclusive: 14.1 µM [activator, partial curve, poor fit]
Clc1ccc(Nc2ccc(NCc3ccccc3)nn2)cc1	inactive: -5.98%	–
Cc1ccc(C(=O)Cn2cnc3ccccc3c2=O)cc1C	–	inconclusive: 35.5 µM [activator, single point]
CC(C)c1ccc(S(=O)(=O)N2CCN(C(=S)NCc3ccco3)CC2)cc1	–	inconclusive: 5.62 µM [activator, single point]
O=C(c1cccc(F)c1)N1CCC2(CC1)CCN(c1ccncc1)CC2	inactive: -29.8%	–
Cc1ccc(CN2C(=O)N/C(=C\c3ccc(N4CCOCC4)cc3)C2=O)cc1	–	inconclusive: 0.1 µM [activator, full curve, poor fit]

SMILES	activity change, positive = activation	Potency
C=CCn1c(-c2cccs2)nc2ccccc21	inactive: 7.01%	–
COc1ccc(-c2cc3ccccc3n2CC(O)CNC(CO)(CO)CO)cc1 (stereo unspecified)	–	inconclusive: 7.08 µM [activator, full curve]
O=C(c1ccc([N+](=O)[O-])o1)N1CCOCC1	inactive: -7%	–
Cc1ccc2cc(CN(C(=O)c3cccnc3)C(C)C)c(=O)[nH]c2c1	–	inconclusive: 0.282 µM [activator, full curve, poor fit]
COc1ccc(Br)cc1CN(C)C(C)C(=O)Nc1cc([N+](=O)[O-])ccc1OC (stereo unspecified)	inactive: -19.9%	–
O=C(Nc1cccc(-c2cn3ccccc3n2)c1)C1CC1	–	inconclusive: 17.8 µM [activator, single point]
Clc1ccc(-c2csc(=Nc3ccccc3)n2Cc2ccc3c(c2)OCO3)cc1	–	inconclusive: 15.8 µM [activator, single point]
CCCCNC(=O)c1ccc(NS(=O)(=O)c2ccccc2)cc1	–	inconclusive: 2.24 µM [activator, partial curve, poor fit]
COc1cccc(NC(=O)Nc2ccc(C(C)(C)C)cc2)c1	–	active: 11.2 µM
O=C(Nc1ccccc1)c1cnc2n(c1=O)CCS2	–	inconclusive: 31.6 µM [activator, single point]
COC(=O)Cc1n[nH]c(=O)c2ccccc12	–	inconclusive: 3.55 µM [activator, single point]
O=C1C=CC(=O)N1CCCCCCN1C(=O)C=CC1=O	inactive: -69%	–
COc1ccc(NC(=O)c2csc3c2CCCCC3)cc1	–	active: 7.94 µM
CC(/C=N/NC(=O)c1sc(N)nc1C)=C\c1ccccc1	–	inconclusive: 4.47 µM [activator, partial curve]
CCCn1nnc(NC(=O)C(C)Oc2ccc(Cl)cc2Cl)n1 (stereo unspecified)	–	inconclusive: 2 µM [activator, partial curve]
C=CCNc1nc(-c2ccc([N+](=O)[O-])cc2)cs1	–	inconclusive: 17.8 µM [activator, partial curve, poor fit]
CCOC(=O)c1[nH]c2ccc(F)cc2c1NC(=O)c1cc(OC)c(OC)c(OC)c1	–	active: 22.4 µM
Cc1nn(C)c(C)c1/C=N/NC(=O)C(C)(C)Oc1ccc(Cl)cc1	–	inconclusive: 2.51 µM [activator, single point]
O=C(CSc1cccc[n+]1[O-])c1cc(Cl)ccc1Cl	–	inconclusive: 12.6 µM [activator, partial curve]
COc1cc2c(=O)c(S(=O)(=O)c3ccc(F)cc3)cn(Cc3ccc(Cl)cc3)c2cc1OC	–	inconclusive: 3.55 µM [activator, single point]
CSc1ccc(CCNC(=O)c2cnn(-c3ccccc3)c2-n2cccc2)cc1	inactive: -6.66%	–
O=C(OCC1CC(c2ccccc2)=NO1)c1ccc(Br)cc1 (stereo unspecified)	–	inconclusive: 0.158 µM [activator, full curve, poor fit]
Cc1cc(C)n(CC(O)Cn2c3ccccc3c3ccccc32)n1 (stereo unspecified)	–	active: 12.6 µM
O=C(NCc1ccco1)c1ccc(CN2CCOCC2)cc1	–	inconclusive: 5.62 µM [activator, single point]
